Reference: PubChem BioAssay AID686970 (National Center for Advancing Translational Sciences (NCATS), 2013)
In all, about 360,000 compounds went through this assay and about 6,000 (1.7%) were called active. The shares of active, inactive and inconclusive entries below differ from those in the screen. Calls follow the shape of the dose curve; as a rule, active = well fitted cell-killing curve with a large enough effect; inconclusive = small, poorly fitted or top-dose-only effect, or effect the other way; inactive = flat fitted curve, though single readings scatter. Potencies of inconclusive entries are left out as doubtful fits.

Assay: qHTS for induction of synthetic lethality in tumor cells producing 2HG: qHTS for the HT-1080-NT fibrosarcoma cell line;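 also: NT is the 2HG producing partner of a matched IDH1 knockdown line; nearly all actives have a fitted effect of over 55% in size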;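 as to activity, negative = less viability: 0% = DMSO-treated cells and -100% = media-only wells without cells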
Conditions: HT-1080-NT fibrosarcoma viability, CellTiter-Glo ATP luminescence, 48 h; activity, negative = less viability: at 46.1 µM (top of the series) unless noted
In short: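 HT-1080-NT fibrosarcoma cells (2HG-overproducing), 750 cells/well in RPMI with 5% FBS, dosed after 2 h and incubated 48 h at 37C. CellTiter-Glo luminescence normalized to DMSO and no-cell wells; concentration-response curves fitted and classed.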
Potency is read from the fitted curve at half-maximal effect; tags tell the direction and shape of the fitted curve.

For `Cc1ccsc1C(=O)OCC(=O)NCCCc1ccccc1`, which Potency is on record?
The Potency was inconclusive [rising, single point].

With `Cc1ccc2sc(N(CCCN(C)C)C(=O)c3ccc(S(=O)(=O)N4CCc5ccccc5C4)cc3)nc2c1C` as the compound, how does the Potency read?
Its Potency is active: 20.6 µM.

For `COc1ccccc1C(=O)COC(=O)Cn1[nH]c(=O)c2ccccc2c1=O`, which “activity, negative = less viability” value is on record?
Its value is inactive: 3.81%.

With `O=C(Nc1cccc(NC(=O)c2ccccc2Cl)c1)c1ccc([N+](=O)[O-])o1` as the compound, how does the Potency read?
The Potency was inconclusive [cytotoxic, partial curve].

With `Cc1nc2c3cc(Cl)ccc3n(CCN3CCCCC3)c2s1` as the compound, how does the Potency read?
The Potency was inconclusive [cytotoxic, single point].

With `CN1CCN(C(=O)/C=C/c2ccc([N+](=O)[O-])o2)CC1` as the compound, how does the Potency read?
Its Potency is inconclusive [cytotoxic, single point].

For `O=[N+]([O-])c1ccc(Cl)c(/C=N/NC(=S)Nc2ccccc2)c1`, which Potency is on record?
The Potency was inconclusive [cytotoxic, partial curve].

For `CC(=O)Nc1cccc(C(=O)/C=C/c2ccc(Br)cc2)c1`, which Potency is on record?
Its Potency is inconclusive [cytotoxic, single point].

For `CC(Nc1nc(-c2ccccc2)nc2ccccc12)c1ccccc1` (stereo unspecified), which Potency is on record?
Its Potency is inconclusive [cytotoxic, single point].

With `COc1cc(C(=O)N2CCC(n3c(C)nc4cc(F)ccc43)CC2)cc(OC)c1OC` as the compound, how does the “activity, negative = less viability” value read?
The value was inactive: 0.587%.

With `Cc1cccc(N=C2NN=C(c3c(C)[nH]c4ccccc34)CS2)c1` as the compound, how does the Potency read?
Its Potency is inconclusive [cytotoxic, single point].

With `CCOc1cc(/C=N/NC(=O)C(C)Sc2ccccn2)ccc1O` (stereo unspecified) as the compound, how does the “activity, negative = less viability” value read?
The value was inactive: 13.3%.

For `COc1ccc(S(=O)(=O)NCc2ccco2)cc1N(C)S(=O)(=O)c1ccccc1`, which “activity, negative = less viability” value is on record?
Its value is inactive: 4.11%.

Which Potency does the source give for `Cc1ccc(NC(=O)c2ccc(Cl)c(N3C(=O)C=CC3=O)c2)cc1` here?
Its Potency is inconclusive [cytotoxic, single point].

For `CCCC/C=C/C(NC(=O)c1ccc(-c2ccccc2)cc1)c1ccccc1` (stereo unspecified), which Potency is on record?
The Potency was inconclusive [cytotoxic, single point].

With `COc1ccc(NC(C)=O)cc1NC(=O)c1ccc2ccccc2c1` as the compound, how does the “activity, negative = less viability” value read?
The value was inactive: -8.62%.

Which “activity, negative = less viability” value does the source give for `CC(NC(=O)c1ccccc1Cl)c1ccc(-n2ccnc2)cc1` (stereo unspecified) here?
Its value is inactive: 10.1%.

For `Fc1ccccc1/C=C1\CCCC2=C1Nc1nnnn1C2c1ccccc1F` (stereo unspecified), which Potency is on record?
The Potency was active: 12.6 µM.

With `O=C(CNC(=S)N(Cc1ccccc1)Cc1ccccc1F)NCCc1ccc(Cl)cc1` as the compound, how does the Potency read?
Its Potency is active: 16.4 µM.

For `Cc1ccc(C(=O)NNC(=S)NC(=O)c2ccccc2)cc1`, which Potency is on record?
The Potency was inconclusive [cytotoxic, partial curve].

Which Potency does the source give for `O=[N+]([O-])c1cc(/C=N/O)ccc1Sc1ccccc1` here?
Its Potency is inconclusive [cytotoxic, partial curve].

With `CS(=O)(=O)N(CC(=O)Nc1ccccc1Sc1ccccc1)C1CCCCC1` as the compound, how does the Potency read?
The Potency was inconclusive [cytotoxic, single point].

For `COc1ccc(N(C)C(=O)c2ccc3c(Cl)c4c(nc3c2)CCCC4)c(OC)c1`, which Potency is on record?
Its Potency is inconclusive [cytotoxic, partial curve, poor fit].

For `O=S(=O)(c1ccc2c(c1)C(=NO)c1cc(S(=O)(=O)N3CCCCC3)ccc1-2)N1CCCCC1`, which Potency is on record?
Its Potency is active: 0.366 µM.

With `NC(=NC(=O)c1ccccc1)N1CCN(C(c2ccccc2)c2ccccc2)CC1` as the compound, how does the “activity, negative = less viability” value read?
Its value is inactive: 21.2%.

Which Potency does the source give for `COc1ccc(-c2n(Cc3ccccc3)c3ccccc3[n+]2Cc2ccccc2)cc1` here?
The Potency was active: 4.61 µM.

For `CCN(CC)CCNC(=O)c1ccc(NC(=O)c2cn(-c3ccccc3)nc2-c2cccs2)cc1`, which Potency is on record?
The Potency was inconclusive [cytotoxic, single point].

Which Potency does the source give for `CCCOc1ccc2cc(-c3ccccn3)c(=O)oc2c1` here?
The Potency was inconclusive [cytotoxic, single point].

Which Potency does the source give for `O=C(OCCN1CCOCC1)c1ccccc1` here?
The Potency was inconclusive [rising, partial curve].

Which Potency does the source give for `COc1cccc(C(=O)NN/C(C)=C/C(=O)C(F)(F)C(F)(F)C(F)(F)F)c1` here?
Its Potency is inconclusive [cytotoxic, partial curve].

Which Potency does the source give for `O=C(Nc1nc(-c2ccc3c(c2)OCCO3)cs1)c1ccc(S(=O)(=O)N2CCCCC2)cc1` here?
The Potency was inconclusive [cytotoxic, partial curve].

For `O=C(NCCC1=CCCCC1)c1coc(=O)c(Br)c1`, which Potency is on record?
The Potency was active: 7.31 µM.

With `Cc1ccc(C(=O)c2cc([N+](=O)[O-])ccc2N2CCOCC2)cc1C` as the compound, how does the Potency read?
The Potency was inconclusive [cytotoxic, full curve].

For `CN(Cc1cccc2cnccc12)C(=O)CCc1nnc(CCc2ccccc2)o1`, which “activity, negative = less viability” value is on record?
Its value is inactive: 10.3%.

With `COCCNC(=O)C1(C)CCCN(C(=O)c2cc(OC)c(OC)c(OC)c2)C1` (stereo unspecified) as the compound, how does the “activity, negative = less viability” value read?
Its value is inactive: 8.95%.

With `OC[C@@H]1[C@@H](c2ccc(Cl)cc2)C(c2ccccc2)=NN1c1ccccc1` as the compound, how does the Potency read?
Its Potency is inconclusive [cytotoxic, single point].

With `Cc1noc(C)c1NC(=O)Nc1cccc2c1O[C@H](CN(C)C(=O)Nc1ccccc1)[C@@H](C)CN([C@H](C)CO)C2=O` as the compound, how does the Potency read?
Its Potency is inconclusive [rising, single point].

Which Potency does the source give for `CC(=O)S[C@@H]1CC2=CC(=O)CC[C@]2(C)[C@H]2CC[C@@]3(C)[C@@H](CC[C@@]34CCC(=O)O4)[C@H]12` here?
The Potency was inconclusive [cytotoxic, single point].

With `COC(=O)c1ccc(NC(=S)N2CCN(Cc3ccc(Cl)cc3)CC2)cc1` as the compound, how does the Potency read?
Its Potency is inconclusive [cytotoxic, single point].

With `Cc1ccccc1OC1C(=O)N(Cc2ccc3c(c2)OCO3)C1c1sccc1C` (stereo unspecified) as the compound, how does the Potency read?
The Potency was inconclusive [cytotoxic, single point].

Which “activity, negative = less viability” value does the source give for `COc1ccc(CNC(=O)CN2CCN(c3ccccc3O)CC2)cc1OC` here?
The value was inactive: 4.31%.

Which Potency does the source give for `COc1cc(CNC(=O)c2cc(-c3cc(F)ccc3OC(C)C)n[nH]2)cc(OC)c1` here?
The Potency was inconclusive [cytotoxic, single point].

Which Potency does the source give for `COc1ccc(-c2cnnc(N/N=C/c3ccc(O)c(OC)c3)n2)cc1` here?
Its Potency is inconclusive [cytotoxic, full curve].

With `CCNc1nn2ccccc2c1/C=C(\C#N)C(=O)OCC` as the compound, how does the “activity, negative = less viability” value read?
The value was inactive: 3.36%.

For `COc1ccc2cc(C3OCCO3)c(Cl)nc2c1`, which Potency is on record?
Its Potency is inconclusive [rising, single point].

For `COc1ccc(/C=C2\SC(=S)N(CCCC(=O)Nc3ccc(O)cc3)C2=O)cc1`, which Potency is on record?
Its Potency is inconclusive [cytotoxic, single point].

For `CCOC(=O)c1c(NC(=O)OC)sc2c1CCC2`, which “activity, negative = less viability” value is on record?
The value was inactive: -1.64%.

Which Potency does the source give for `CC(=O)Nc1ccc(-c2ccnc3c2CC(C(=O)Nc2cccc(Oc4ccccc4)c2)O3)cc1` (stereo unspecified) here?
The Potency was inconclusive [cytotoxic, single point].

For `CCOC(=O)Cc1csc(SCC(=O)NC2CCC(C)CC2)n1` (stereo unspecified), which “activity, negative = less viability” value is on record?
The value was inactive: -3.71%.

With `CC1CCc2[nH]c3ccc(C(=O)N(C)CC(=O)Nc4cccc(F)c4)cc3c2C1` (stereo unspecified) as the compound, how does the Potency read?
The Potency was inconclusive [cytotoxic, partial curve].

With `CCCn1c(SCC#N)nc2c(c1=O)C1(CCCC1)Cc1ccccc1-2` as the compound, how does the Potency read?
Its Potency is inconclusive [cytotoxic, single point].

With `Clc1ccc(Nc2ncnc3ccc(Br)cc23)cc1` as the compound, how does the Potency read?
Its Potency is inconclusive [cytotoxic, full curve].

With `CC1(C)OC(=O)C2=C(C[C@@H](CCc3ccccc3)O[C@H]2CCc2cccc(Cl)c2)O1` as the compound, how does the “activity, negative = less viability” value read?
The value was inactive: -0.581%.

For `CCOc1cc(/C=C2\C(=O)N(c3ccc(C(N)=O)cc3)N=C2C)ccc1OC(=O)c1cccs1`, which Potency is on record?
The Potency was inconclusive [cytotoxic, single point].

Which “activity, negative = less viability” value does the source give for `CCOC(=S)SCc1cn2ccccc2n1` here?
Its value is inactive: -1.53%.

For `COc1ccc(NC(=O)C2CCCN(S(=O)(=O)c3cccnc3)C2)cc1OC` (stereo unspecified), which “activity, negative = less viability” value is on record?
The value was inactive: 3.12%.

With `O=C1C=C(c2ccc(O)cc2)C[C@@H](c2ccc(Cl)cc2)C1` as the compound, how does the “activity, negative = less viability” value read?
Its value is inactive: -9.35%.

Which “activity, negative = less viability” value does the source give for `COc1ccc(CNC(=O)Cc2nn(C)c(=O)c3ccccc23)cc1` here?
The value was inactive: -8.81%.

With `COc1cc(-c2ccc3oc(-c4ccsc4)cc(=O)c3c2)cc(OC)c1OC` as the compound, how does the Potency read?
The Potency was inconclusive [cytotoxic, single point].

For `O=C(NCCCN1CCOCC1)c1ccccc1N1C(=O)[C@@H]2Cc3c([nH]c4ccccc34)C(c3cccc(Cl)c3)N2C1=O` (stereo partly specified), which Potency is on record?
The Potency was inconclusive [cytotoxic, single point].

Which Potency does the source give for `Cc1ccc(-n2c(SCCN)nnc2-c2cccc(C)c2)cc1` here?
The Potency was inconclusive [cytotoxic, single point].

Which Potency does the source give for `CC(C)NC(=S)N=Nc1c(O)[nH]c2ccc([N+](=O)[O-])cc12` here?
Its Potency is inconclusive [cytotoxic, full curve].

Which Potency does the source give for `COc1ccccc1CN(C)C(=O)c1cc(-c2cc(OC)c(OC)c(OC)c2)nc2ccccc12` here?
Its Potency is active: 14.6 µM.

Which Potency does the source give for `CCOC(=O)c1c(-c2ccc(C)o2)csc1NC(=S)NC(=O)c1ccccc1Br` here?
Its Potency is inconclusive [cytotoxic, single point].

For `Cc1ccccc1N(C(=O)c1snc(C(N)=O)c1N)C(C(=O)NCC1CCCO1)c1ccc(N(C)C)cc1` (stereo unspecified), which “activity, negative = less viability” value is on record?
The value was inactive: -14.5%.

With `Cc1ccc(OC(=S)Nc2ccccc2)c(C)c1` as the compound, how does the “activity, negative = less viability” value read?
Its value is inactive: -9.29%.

With `O=C(COC(=O)CN1C(=O)c2ccccc2C1=O)NC1CCCC1` as the compound, how does the “activity, negative = less viability” value read?
Its value is inactive: 11.8%.

Which activity, negative = less viability does the source give for `CCCc1cc(C(N)=S)ccn1` here?
Its activity, negative = less viability is inconclusive: 26.3%.

For `Cc1ccc(C)c(-n2c(-c3ccc4c(c3)OCO4)n[nH]c2=S)c1`, which Potency is on record?
Its Potency is inconclusive [cytotoxic, single point].

For `CC(NC(=O)c1ccco1)c1nc(-c2ccccc2Cl)no1` (stereo unspecified), which “activity, negative = less viability” value is on record?
Its value is inactive: -0.276%.

For `Cc1cc(C)c2cc(CN(CCCN(C)C)C(=S)NCc3ccccc3)c(=O)[nH]c2c1`, which Potency is on record?
Its Potency is inconclusive [cytotoxic, partial curve].
